According to the BET-seq Pho4 binding data (Le et al. 2018):
This is one part of the list. Values were computed here from the reads of four pooled replicates and scatter widely.

Molecular target: T1, Pho4 (S. cerevisiae) (UniProt P07270)
T1 sequence: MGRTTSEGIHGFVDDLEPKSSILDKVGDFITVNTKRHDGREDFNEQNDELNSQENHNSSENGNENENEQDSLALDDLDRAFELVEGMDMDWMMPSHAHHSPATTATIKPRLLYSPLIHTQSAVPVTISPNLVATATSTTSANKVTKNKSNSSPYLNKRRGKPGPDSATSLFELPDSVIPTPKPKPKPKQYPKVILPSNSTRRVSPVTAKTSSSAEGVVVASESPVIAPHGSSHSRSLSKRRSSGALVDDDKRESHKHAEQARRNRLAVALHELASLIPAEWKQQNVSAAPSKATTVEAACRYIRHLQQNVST
Experiment: relative binding free energy (BET-seq); higher = weaker binding
Conditions: reference: library average

Sequence	relative binding free energy [kcal/mol]
GGTATCACGTGTGGAA	0.18
GGAGGCACGTGGGAGT	-0.13
TGGGGCACGTGGATTC	-0.03
AGTGACACGTGAAGTG	0.02
GCAATCACGTGGAGGG	0.05
TATATCACGTGGTGCG	-0.02
GGCGGCACGTGGTTAA	-0.09
AGATGCACGTGTACGG	-0.04
AATATCACGTGTGGTA	0.08
GTTATCACGTGGGGAT	0.11
AGTGGCACGTGAAGGG	0.14
CGGAACACGTGTAGGG	0.02
TGAGTCACGTGGGAGA	0.15
AATGTCACGTGGGGCC	-0.03
TTAAGCACGTGATTGT	-0.01
GAGGACACGTGCGGAG	0.1
GGAATCACGTGTTGTA	0.23
GGTTACACGTGTACGA	0.21
ACTGTCACGTGTATGA	0.19
ATGATCACGTGTCTGG	0.05
TTAGGCACGTGGTCTT	-0.03
TTTACCACGTGTGCGG	0.03
TGTTTCACGTGATTAG	0.37
GAAATCACGTGGTTGT	0.27
AAGGTCACGTGAGGTG	0.36

Sequence	relative binding free energy [kcal/mol]
AAGTGCACGTGTCTGT	-0.12
AGGGCCACGTGGTGCG	-0.2
GGTGTCACGTGGATAC	0.26
TGAGTCACGTGGGCTG	0.06
AGCGGCACGTGTAGTT	0.01
ACGTGCACGTGATGGT	-0.12
ATTATCACGTGCTGTT	-0.03
TATTACACGTGAGGGG	0.33
CATTTCACGTGATATT	0.25
TTGAGCACGTGTGGGG	-0.07
TTTGGCACGTGGTCCG	-0.24
CTAATCACGTGTGGGC	0.33
GGGGACACGTGATTTG	0.26
TGACTCACGTGAGGTT	0.39
TTTTTCACGTGTAAGG	0.3
AGTGTCACGTGCTGCT	0.1
TTATGCACGTGTCTTG	-0.1
GGTAACACGTGTGGGT	0.04
AGGGACACGTGTGGAT	-0.03
TGTGACACGTGGGTCG	-0.22
TTGGCCACGTGCGGTA	-0.22
CAGAACACGTGTTGGT	-0.03
GTTGTCACGTGGGTGA	0.04
TGAAGCACGTGCTAGG	-0.23
TGGAGCACGTGTAAGA	0.04

Sequence	relative binding free energy [kcal/mol]
GATTGCACGTGTCGGA	0.17
GTTTGCACGTGATTAG	0.23
GTGCACACGTGCGTGG	-0.15
TAGGTCACGTGATTGC	0.06
GTGTACACGTGGTAAT	0.05
AATTGCACGTGCGGTT	0.06
GGTTTCACGTGTGATA	0.21
TGAAGCACGTGTAGGA	0.01
TGAACCACGTGTGTAT	0.16
TTGGTCACGTGGGAGC	-0.02
GGTAACACGTGGGAAT	0.14
CGTTGCACGTGAGCGG	0.18
CCGGTCACGTGTTGGT	0.14
TACGTCACGTGGGATA	0.11
TCTCGCACGTGTGTGT	-0.07
TTGGGCACGTGAGCGT	0.15
TAATGCACGTGAAGTG	0.25
TGCGACACGTGGTAAG	0.03
GATGGCACGTGTTGTT	0.08
GAGATCACGTGTTGAG	0.21
CTATTCACGTGGTCGG	0.18
GAATTCACGTGGAGGT	0.32
AATTACACGTGAAGGT	0.29
AAAGTCACGTGATGAG	0.21
GATGGCACGTGATCGG	-0.09

Sequence	relative binding free energy [kcal/mol]
GTTCGCACGTGTATGA	0.04
TAGCTCACGTGGCGTT	0.24
ATTAACACGTGTCGTT	0.1
GTATTCACGTGGCCTT	0.2
GTGATCACGTGTATAT	0.2
CTGTTCACGTGGAGGG	0.35
CGTTACACGTGATTGT	0.27
CTAGGCACGTGAAGGG	0.11
TGTATCACGTGATATA	0.15
CTGGGCACGTGAGTTA	0.11
AGGTACACGTGCGTGG	0.03
TTTATCACGTGCGGTT	0.03
ATTTACACGTGGTCTG	-0.02
CATAGCACGTGGGGAT	-0.17
AGAGGCACGTGGAGTC	0.04
AAGGCCACGTGGTGGT	-0.08
GTGTGCACGTGTGGCT	0.13
GGGAACACGTGTGGAA	0.22
GCCGGCACGTGGTGGC	-0.11
CGTAACACGTGTATGG	0
GTTGACACGTGTGCGG	0.06
AGAGGCACGTGTTCTT	-0.11
TTAGTCACGTGAGGCG	0.1
ATGATCACGTGGTTGG	0.14
TAACTCACGTGGTTTG	0.18

Sequence	relative binding free energy [kcal/mol]
GGAAGCACGTGGGGCA	-0.19
TAGTGCACGTGGTATT	-0.11
AATTACACGTGTTTGG	0.14
ATTTTCACGTGGAGCT	0.28
TTAAGCACGTGTGGCA	0.06
ATATTCACGTGGCATG	0.15
AGGTTCACGTGAGCAT	0.47
AATGTCACGTGTATAG	0.04
ATAAGCACGTGTGATG	0.04
TCTCGCACGTGAGGTG	0.26
AGAAGCACGTGTTAGG	0.02
TTTCACACGTGAGTTT	0.28
AATGTCACGTGCAGGT	-0.09
ATGGTCACGTGTTAGT	0.09
AGTGACACGTGGGTGG	-0.14
TAAGTCACGTGAGTTA	0.24
TTGTACACGTGCGTTT	0.08
TTGTGCACGTGGGCGC	-0.12
CATAGCACGTGGAGTA	0.09
AGGGGCACGTGATGGT	0
ATCTGCACGTGGGATG	-0.26
TGGAGCACGTGGTTGT	-0.14
GTATGCACGTGCATTT	-0.1
GTTATCACGTGCGGTA	0.15
TTTATCACGTGCGTGC	0.21

Sequence	relative binding free energy [kcal/mol]
AGTGGCACGTGTGTGA	-0.12
TGGGACACGTGTTGGG	0.11
GGGTACACGTGGTTTC	0.03
GGTTTCACGTGCTGGA	0.2
TATTTCACGTGCATGT	0.17
TCAGTCACGTGATTTT	0.13
TGTGACACGTGTAGGC	0.08
GTATGCACGTGTGTTA	0.02
GGGAACACGTGGCAGG	-0.05
AGTACCACGTGTTTTG	-0.02
GCGTGCACGTGGCAGT	-0.15
GCTATCACGTGTGGGG	0.16
CAAGTCACGTGGGGCG	-0.12
GTAGTCACGTGAGTCG	0.31
TTTGGCACGTGCGTAA	-0.18
TGGTGCACGTGCCTTG	-0.11
TTCTACACGTGCGGTA	0.21
TCATTCACGTGGTCGG	0.43
ATGGTCACGTGGGCAA	-0.08
CCTTGCACGTGTGGTT	-0.06
TGGTTCACGTGAGATA	0.36
